# According to PubChem BioAssay AID485344 (National Center for Advancing Translational Sciences (NCATS), 2010):
# The campaign covered roughly 340,000 compounds. About 6,900 (2%) were called active. Rule as the data show it: active = inhibition above about 30%; inactive = below that, where a call was filed. This is a selection; strong and weak results do not stand in their true shares. The source gives no active or inactive call for entries shown without one.
# Target: D(2) dopamine receptor (Homo sapiens) (UniProt P14416)
# Test: HTS Assay for Allosteric Antagonists of the Human D2 Dopamine Receptor: Primary Screen for Antagonists; also: 0% is about no effect
# Conditions: HEK293 TREx D2 cells, calcium flux, dopamine EC80; at 10 µM; stronger effect = higher value
# Outline: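 Compounds are added to dye-loaded, induced HEK293 T-REx cells coupled to calcium release via D2; after a 3 min kinetic read an EC80 dopamine stimulus is given and fluorescence is recorded for 3 more min.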
# Chain of UniProt P14416 (P14416 whole entry, looked up): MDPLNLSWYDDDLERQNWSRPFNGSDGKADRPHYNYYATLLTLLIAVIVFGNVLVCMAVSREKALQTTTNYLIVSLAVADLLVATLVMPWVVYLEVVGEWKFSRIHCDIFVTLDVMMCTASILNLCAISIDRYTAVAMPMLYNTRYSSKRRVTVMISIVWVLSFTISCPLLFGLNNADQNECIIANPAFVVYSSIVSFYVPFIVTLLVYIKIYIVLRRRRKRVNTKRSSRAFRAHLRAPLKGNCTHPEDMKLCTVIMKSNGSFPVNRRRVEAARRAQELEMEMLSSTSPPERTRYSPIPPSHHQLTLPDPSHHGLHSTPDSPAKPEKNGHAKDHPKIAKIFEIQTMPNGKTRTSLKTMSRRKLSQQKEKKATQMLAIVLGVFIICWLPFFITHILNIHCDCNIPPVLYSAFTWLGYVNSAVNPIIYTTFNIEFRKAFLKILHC
row,Compound,inhibition
1,Cc1ccc(NC(=O)C2CCCN(c3nc4ccccc4s3)C2)c(C)c1 (stereo not drawn),-20.3%
2,Cc1cccc(C)c1OCC(=O)N/N=C/c1cc2c(cc1[N+](=O)[O-])OCO2,active: 30%
3,O=C(Nc1nnc2n1CCS2)c1cc(C(F)(F)F)cc(C(F)(F)F)c1,9.2%
4,CCOc1ccc(N(C)S(=O)(=O)c2cc(-c3cnc(C)o3)ccc2OC)cc1,-2.94%
5,COc1ccc(/C=C/C(=O)Nc2cccc(F)c2)cc1,-19.1%
6,CN(C)S(=O)(=O)c1ccc2c(c1)N(CC(=O)N1CCC(C(N)=O)CC1)CCS2,-6.17%
7,Cc1ccc(C)c(NC(=O)Cn2cc(S(=O)(=O)c3ccc(F)cc3)c(=O)c3cc(F)ccc32)c1,-17.8%
8,CCc1ccc(NC(=O)c2sc3nc(C)cc(C)c3c2NC(=O)c2ccccc2)cc1,2.57%
9,COc1cccc(CNC(=O)Nc2ccc3c(c2)N(C)C(=O)c2ccccc2S3)c1,-5.54%
10,Cc1ccc(-c2nn3c(C)nnc3c3ccccc23)cc1S(=O)(=O)NC(C)(C)CO,-2.01%
11,COc1ccc(OC)c(-c2cc(C(=O)NCc3ccc(Cl)cc3)no2)c1,active: 62%
12,Cc1ccccc1NC(=O)C1CCN(S(=O)(=O)c2cccc3nonc23)CC1,17.3%
13,CCCSc1nnc2n(C)c(=O)c3c4c(sc3n12)CCC4,active: 40.1%
14,Cc1ccc(NC(=O)c2c(C)oc3ncnc(N4CCCCC4)c23)c(C)c1,4.74%
15,Brc1ccccc1OCCCN1CCCCCC1,active: 46.2%
16,CC(Oc1ccccc1F)C(=O)NCC1(N2CCOCC2)CCCCC1 (stereo not drawn),-13.1%
17,Cc1cc(C)cc(NC(=O)c2cc(S(=O)(=O)N3CCCCC3)c[nH]2)c1,-0.42%
18,CC1CCCN(c2ncnc3c2nnn3C)C1 (stereo not drawn),8.57%
19,CCCOC(=O)c1cccc(Nc2nc(C(=O)OCC)nc3ccccc23)c1,-6.97%
20,O=C(Nc1ccc(C(F)(F)F)cc1)C1(c2cccs2)CCOCC1,9.36%
21,CCC1CN(C(=O)N2CCC(C(=O)NCc3ccccc3F)CC2)c2ccccc2O1 (stereo not drawn),-10.4%
22,CCOc1ccc(NC(=O)c2cc(S(=O)(=O)N3CCC(C)CC3)cn2C)cc1,4.45%
23,CC1=C(C(=O)Nc2ccc(F)cc2)C(c2ccc(N(C)C)cc2)NC(=O)N1 (stereo not drawn),-4.5%
24,CCOC(=O)C1CCN(C(=O)CN(c2ccc3c(c2)OCO3)S(C)(=O)=O)CC1,active: 45.3%
25,CCOc1ccc(CCNC(=O)Cn2ccc3cc(S(=O)(=O)N4CCCCCC4)ccc32)cc1,-3.79%

row,Compound,inhibition
1,CCC1CN(C(=O)C2CCN(S(=O)(=O)c3c(C)noc3/C=C/c3ccc(C)cc3)CC2)c2cc(C)ccc2O1 (stereo not drawn),20.7%
2,Cc1cc(=O)oc2cc(OCC(O)CN3CCN(c4ccccc4)CC3)ccc12 (stereo not drawn),active: 71.9%
3,COc1ccc(NC(=O)C(=O)c2cc(C)n(-c3ccc(C)cc3)c2C)cc1Cl,19.2%
4,O=C(CCc1ccc(O)c(O)c1)N/N=C/c1ccc2c(c1)OCO2,active: 42.3%
5,CCOc1ccccc1NC(=O)C1CCN(S(=O)(=O)c2cccc3nonc23)CC1,-25%
6,Cc1cccc(N2CCN(C(=O)C3CCCN(C(=O)c4cc5sccc5n4C)C3)CC2)c1C (stereo not drawn),4.07%
7,O=C(Nc1cc(-c2ccc(F)c(F)c2)no1)c1ccccc1F,12.6%
8,COc1ccc(N2CCN(c3ncnc4onc(C)c34)CC2)cc1,-9%
9,O=C(C1CCC(CNS(=O)(=O)c2cccs2)CC1)N1CCN(c2ccc(Cl)cc2)CC1 (stereo not drawn),-4.74%
10,COc1ccc(CCNC(=O)Cn2c(=O)nc(-c3ccccc3F)c3cc(Cl)ccc32)cc1OC,5.4%
11,COC(=O)c1ccccc1NC(=O)CN(c1ccc(Cl)cc1)S(=O)(=O)c1ccc(OC)cc1,-16.9%
12,Cc1ccc2[nH]c(CSc3nnc(C)s3)cc(=O)c2c1,2.52%
13,COc1ccc(NC(=O)CSc2nnc(-c3nonc3NC(C)=O)n2C)cc1Cl,-13.9%
14,Cc1ccc(-n2ccnc(NCCc3ccccc3)c2=O)cc1C,15.9%
15,O=C(CN1CCCCCC1)Nc1ccc(Br)cn1,active: 41.3%
16,O=c1cc2nc(-c3ccccc3F)nc(SCc3ccc(Br)cc3)n2[nH]1,-21.7%
17,CCOC(=O)c1c(C)[nH]c(C)c1S(=O)(=O)N1CCCC(C(=O)Nc2ccc(OC)c(OC)c2)C1 (stereo not drawn),-10.7%
18,Cc1ccccc1-n1c2nc(=O)[nH]c(=O)c-2cc2c(Cl)cccc21,1.38%
19,CC(C)c1ccc(NC(=O)c2cc(S(=O)(=O)NC3CCCCC3)ccc2F)cc1,5.45%
20,Cc1c(Cl)cccc1NC(=O)CCn1cnnn1,-4.49%
21,CCN(CC)CCCNC(=O)C(C)n1nc(C)n2c(cc3occc32)c1=O (stereo not drawn),8%
22,COCCCN1C(=O)c2[nH]nc(-c3ccccc3O)c2C1c1ccc(OC)cc1 (stereo not drawn),12.2%
23,CCOc1ccc2nc(N3CCN(C(=O)C(C)C)CC3)sc2c1,22.3%
24,COc1ccc2oc(=O)cc(CN3CCN(C(=O)c4ccccc4Br)CC3)c2c1,2.29%
25,CC1CCN(c2nn3c(=O)c(C(=O)NCCc4ccc(Cl)cc4)cnc3s2)CC1,-3.76%

row,Compound,inhibition
1,Cc1c(C(=O)N2CCCC2)sc(NC(=O)c2ccc(Cl)cc2)c1C#N,active: 91.2%
2,Cn1nnnc1SCCCNCc1ccc(-c2cccc(Cl)c2)o1,-24.5%
3,O=C(OCc1ccco1)c1ccc2c(c1)N(Cc1ccc([N+](=O)[O-])cc1)C(=O)c1ccccc1S2,-16.6%
4,CCOC(=O)c1c(NC(=O)c2ccccc2C)sc2c1CCCC2,-11.1%
5,Cc1nc(-n2nc(C)c(CCC(C)C)c2C)sc1C(=O)Nc1cccc(Cl)c1C,15.5%
6,O=C(CN1C(=O)COc2ccc(S(=O)(=O)N3CCCC3)cc21)NCCc1ccc(Cl)cc1,-20.1%
7,Oc1ccccc1-c1nc(/C=C/c2ccccc2)nn1-c1ccccc1,-5.57%
8,Cc1cc(=O)oc2c3c(cc(OCC(=O)NC(Cc4ccc(Cl)cc4)C(=O)O)c12)OC(C)(C)CC3 (stereo not drawn),active: 35.9%
9,CC(C)NC(=O)Cn1c(=O)nc(-c2ccccc2)c2ccccc21,-3.3%
10,CCOc1ccc(CCNC(=O)c2ccc(C)c(-n3cnc4cccnc43)c2)cc1,-12%
11,COc1cccc(CNC(=O)c2ccc3c(Cl)c4c(nc3c2)CCCC4)c1,1.11%
12,Cc1ccc(C(C)C)c(OCc2ccc(C(=O)Nc3ccc(S(N)(=O)=O)cc3C)o2)c1,26.4%
13,CCOc1ccc(Nc2cc(C)c(C#N)c3nc4ccccc4n23)cc1,-6.76%
14,N#Cc1cc(C(=O)c2cc(F)ccc2O)cn(-c2nccs2)c1=O,active: 34.2%
15,Cc1ccc(SCC(=O)Nc2ccc3oc(-c4ccc(F)cc4)nc3c2)cc1,-6.35%
16,CCc1ccc(CNC(=O)c2ccc(NC(=O)N3CCSc4ncccc43)cc2)cc1,4.33%
17,COc1ccc(C(=O)NCc2nnc(SCC(=O)Nc3ccc(C)cc3)n2-c2ccccc2)cc1,-1.1%
18,Cc1ccc(S(=O)(=O)N2CCC(c3nnc(-c4cccc(C)c4)o3)CC2)cc1,3.18%
19,CCOc1ccc(CNC(=O)CCc2c(C)nn(-c3ccc(N4CCOCC4)nn3)c2C)cc1,-12.7%
20,CCC1CCCCN1C(=O)CSc1nc(-c2ccc(OC)cc2)cc(C(F)(F)F)n1 (stereo not drawn),-0.854%
21,CCn1cc2nc(SCC(=O)Nc3cccc(Cl)c3C)n(Cc3ccc(Cl)cc3)c(=O)c2n1,-18.5%
22,CCc1ccc(CNC(=O)c2cnc3sc(N4CCCCCC4)nn3c2=O)cc1,-1.05%
23,CCOc1ccc(C(=O)Nc2ccc3nc(SCC(=O)N4CCCC4)sc3c2)cc1,-18.7%
24,CC(C)c1ccc(NC(=O)CN(C)S(=O)(=O)c2ccc3c(c2)n(C)c(=O)c(=O)n3C)cc1,-7.32%
25,CCOC(=O)N1CCN(CCC(=O)Nc2cc(C)ccc2C)CC1,2.32%

row,Compound,inhibition
1,CCn1cnc2cc(NCc3ccc(N(C)C)cc3)ccc21,6.62%
2,COc1ccccc1CCNC(=O)C1CCN(c2nc3ccccc3nc2C(F)(F)F)CC1,13.7%
3,COC(=O)c1ccccc1NC(=O)CSc1c2c(nc3ccc(Cl)cc13)CCCC2,-0.255%
4,COc1cccc(CNC(=O)C2CCCN(c3nnc(-n4c(C)ccc4C)s3)C2)c1 (stereo not drawn),7.62%
5,COc1ccc(N(C(=O)CNC(=O)c2cccs2)C(C(=O)NCC2CCCO2)c2ccccc2)cc1 (stereo not drawn),active: 80.4%
6,Cc1cc(C)c(S(=O)(=O)Nc2ccc(-c3ccc(N4CCCCC4)nn3)cc2)cc1C,-1.41%
7,O=C(NCC(c1cccnc1)N1CCN(Cc2ccccc2)CC1)C(=O)Nc1ccc(F)cc1 (stereo not drawn),3.9%
8,O=C(Nc1c(O)c2ccccc2oc1=O)c1ccccc1Cl,11.7%
9,CCOc1ccc(CNC(=O)CN2C(=O)CSc3c2c(C)nn3-c2ccccc2)cc1,-1.91%
10,COCCNC(=O)c1ccc(NC(=O)N2CCCCc3ccccc32)cc1,4.58%
11,O=C(C1CC1)N1CCc2cc(Br)cc(S(=O)(=O)Nc3ccc(C(F)(F)F)cc3)c21,3.91%
12,CCOc1ccc(-n2nc3ccc(NC(=O)COc4ccccc4C)cc3n2)cc1,-2.71%
13,COc1ccc(NC(=O)C(=O)NCCc2csc3nc(-c4ccccc4C)nn23)cc1,15.3%
14,CCCC(=O)Nc1nnc(S(=O)(=O)N(C)c2ccccc2)s1,0.0664%
15,COc1ccc(S(=O)(=O)N(CCc2ccccc2)CC(=O)NCc2ccc(C)cc2)cc1,4.25%
16,COC(=O)c1ccc(NC(=O)c2cc3cc4ccc(OC)c(Cl)c4nc3s2)cc1,-2.77%
17,O=C(NC1CC(=O)N(c2ccc(F)cc2)C1)C(c1ccccc1)c1ccccc1 (stereo not drawn),2.17%
18,Cn1cc(C(=O)N2CCN(c3ccccc3)CC2)c(=O)c2cc(S(=O)(=O)N3CCCC3)ccc21,2.3%
19,N#Cc1cnn(Cc2ccccc2)c1/N=C/N1CCOCC1,active: 34.2%
20,Cc1ccc(Cn2c(Cc3ccccc3)nc3ccccc32)cc1,-13.1%
21,Brc1cnc(N2CCCC2)nc1N1CCOCC1,active: 34.9%
22,O=C(CCNC(=O)c1ccc(Br)cc1)Nc1cccc(S(=O)(=O)N2CCCC2)c1,active: 38.1%
23,CCOc1ccc(CN2C(=O)c3ccccc3Sc3ccc(C(=O)NC4CCC(C)CC4)cc32)cc1 (stereo not drawn),27.4%
